# In all, about 33,000 sequences were measured (“E-score (-0.5 to 0.5)”: median about -0.053, highest 2% from about 0.37 on). This is one part of the list.
# Biological target: Hap1 (UniProt P0CE41)
# Assay: PBM E-score (8-mer binding enrichment) (E-score (-0.5 to 0.5)); higher = stronger / more preferred TF binding; most listed sequences are background and not binding sites
# Conditions: protein concentration: 200 nM; construct: GST-DNA-binding domain
# Procedure, shortened: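 Each ungapped eight-base word and its reverse complement, pooled, received an E-score from the Universal PBM Analysis Suite. Underlying scans, normalised with masliner, recorded fluorescent anti-GST bound to GST-tagged yeast transcription factors. These were applied at about 100-200 nM to universal all-10-mer Agilent arrays double-stranded by primer extension.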
# Chain of UniProt P0CE41 (P0CE41 whole entry): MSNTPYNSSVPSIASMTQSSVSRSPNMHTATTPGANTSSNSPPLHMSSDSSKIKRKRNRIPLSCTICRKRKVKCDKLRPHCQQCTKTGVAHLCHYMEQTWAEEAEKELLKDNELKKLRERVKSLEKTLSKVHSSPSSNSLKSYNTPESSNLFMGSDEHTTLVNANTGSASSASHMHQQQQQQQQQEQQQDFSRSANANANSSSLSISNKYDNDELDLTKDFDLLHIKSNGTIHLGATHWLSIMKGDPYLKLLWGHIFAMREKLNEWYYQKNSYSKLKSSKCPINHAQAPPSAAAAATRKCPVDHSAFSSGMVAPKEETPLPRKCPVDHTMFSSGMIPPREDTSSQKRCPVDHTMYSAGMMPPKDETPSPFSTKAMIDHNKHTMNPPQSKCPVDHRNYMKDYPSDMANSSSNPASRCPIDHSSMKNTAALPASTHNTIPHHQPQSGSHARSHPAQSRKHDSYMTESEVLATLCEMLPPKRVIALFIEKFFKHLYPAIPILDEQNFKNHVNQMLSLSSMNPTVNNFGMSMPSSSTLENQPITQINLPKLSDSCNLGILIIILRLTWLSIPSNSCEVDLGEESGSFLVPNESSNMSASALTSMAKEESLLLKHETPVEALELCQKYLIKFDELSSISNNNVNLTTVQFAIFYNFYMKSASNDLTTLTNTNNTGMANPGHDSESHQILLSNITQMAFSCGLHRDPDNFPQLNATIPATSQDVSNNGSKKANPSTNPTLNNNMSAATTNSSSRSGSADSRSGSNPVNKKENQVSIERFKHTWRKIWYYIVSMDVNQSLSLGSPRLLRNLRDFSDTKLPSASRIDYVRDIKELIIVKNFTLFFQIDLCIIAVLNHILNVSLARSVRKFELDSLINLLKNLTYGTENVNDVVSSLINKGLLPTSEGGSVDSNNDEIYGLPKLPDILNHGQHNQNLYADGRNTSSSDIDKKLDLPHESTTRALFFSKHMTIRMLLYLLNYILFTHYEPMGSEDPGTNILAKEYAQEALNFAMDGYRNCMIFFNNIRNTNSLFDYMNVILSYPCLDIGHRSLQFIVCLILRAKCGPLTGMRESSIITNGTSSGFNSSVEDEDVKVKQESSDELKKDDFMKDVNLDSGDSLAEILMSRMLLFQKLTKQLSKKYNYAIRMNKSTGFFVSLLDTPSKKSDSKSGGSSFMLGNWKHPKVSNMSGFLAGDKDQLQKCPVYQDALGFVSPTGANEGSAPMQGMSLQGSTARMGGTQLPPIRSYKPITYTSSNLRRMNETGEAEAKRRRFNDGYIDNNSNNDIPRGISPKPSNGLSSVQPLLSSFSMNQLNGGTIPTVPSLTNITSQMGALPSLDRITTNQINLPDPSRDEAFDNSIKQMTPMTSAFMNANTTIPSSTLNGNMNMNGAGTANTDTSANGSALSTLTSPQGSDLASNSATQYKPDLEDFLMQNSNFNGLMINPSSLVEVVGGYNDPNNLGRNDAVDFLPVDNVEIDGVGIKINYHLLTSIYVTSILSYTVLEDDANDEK
row,Sequence,PBM E-score
1,CTTGTCCA,-0.206
2,CAACAATC,-0.186
3,TAGGCCGA,0.287
4,CTTATTTA,-0.103
5,CGAGTGGA,0.107
6,CTGTTTTA,-0.0302
7,CAACATGC,-0.119
8,AAAAGGTC,-0.169
9,CCAATACC,0.158
10,GCACCGGA,0.353
11,CACGTACG,-0.0664
12,TGAGAGAA,-0.276
13,AGACGGTC,-0.0927
14,CCCTCTAA,-0.177
15,CAACTCGC,-0.119
16,GTCACAGA,-0.256
17,ATAGCGAA,-0.042
18,GAGGCTTA,-0.156
19,CGCAGTCC,-0.113
20,CTTCCAAC,-0.136
21,CGGTAGGC,0.281
22,GTGGCTTA,-0.326
23,CGTAGCAA,-0.152
24,AGGGGAGA,-0.0487
25,AGTGTACA,-0.279

row,Sequence,PBM E-score
1,TTTTAAAA,-0.086
2,ACACATAA,-0.135
3,CCCCTTAA,-0.14
4,TCTCGGCA,0.271
5,TCACGCGA,-0.0375
6,AACGGGAG,0.131
7,GCACGCAC,-0.147
8,GCGGGACC,0.208
9,GAGCTTTA,-0.0716
10,TAGACGGA,0.2
11,AAGCTGCT,-0.15
12,ACACGTAG,-0.246
13,CCTCGAGA,-0.201
14,ACCTCACT,-0.11
15,ATTGATAA,-0.198
16,CCTAGTAG,-0.192
17,CCCGACGA,0.327
18,CCTGGTAA,-0.0491
19,CAAGACGG,-0.104
20,ACCGAATA,-0.00539
21,GTCCCGGA,0.343
22,ACCATCGT,-0.115
23,CAGATGGG,-0.172
24,CACCATGC,-0.0514
25,GAGTTTTA,0.0585

row,Sequence,PBM E-score
1,AGCACAAA,-0.0883
2,GCGGAATA,0.209
3,GCATGAAC,0.00981
4,CGGCGTTC,0.235
5,GCGGTAGA,0.0847
6,TATACAGA,-0.188
7,CGCATACA,0.0372
8,ACTCTTAT,-0.00053
9,TCAGGACA,-0.13
10,CGCGTCTC,0.0366
11,CATCGCAC,-0.0397
12,GACCGTTA,0.315
13,ACCCACTG,0.167
14,CAGTACCC,-0.0429
15,ACCTAAAA,-0.14
16,GGCGTTCA,-0.0502
17,TCCCGCAA,0.171
18,CGTGACGA,-0.00213
19,ACACTACA,-0.175
20,ACGGAGGC,0.177
21,GGAGTTGA,0.172
22,GATCACGC,0.109
23,TATTACCA,0.0161
24,CTCCTAGC,-0.231
25,ACGAATAG,-0.21

row,Sequence,PBM E-score
1,CCAGTAGG,-0.0402
2,ACTCTCCG,0.238
3,TAGTACGA,-0.0518
4,CCCCCCTC,-0.301
5,TATAGTAA,-0.00677
6,CGAGTCGC,0.129
7,AAGCGCAT,-0.126
8,ACCAATTA,-0.114
9,GACAACAC,0.00568
10,ACGAGAGA,-0.117
11,ATGATGGC,-0.0442
12,AGCTACAA,-0.0383
13,AGCGGCCA,0.0331
14,CGATCCCC,0.185
15,AAAATAGA,0.0408
16,ATTCAGTC,0.00025
17,AAATCACA,-0.121
18,GATGCTAC,-0.104
19,CCCGTGCC,0.111
20,AGTGCTGC,-0.171
21,CAGTTATC,0.0285
22,AAAATCTA,-0.0933
23,AAACTCTA,-0.0924
24,CAGGTTAA,-0.237
25,CTATGAGA,-0.248

row,Sequence,PBM E-score
1,GTTTTTAA,0.0619
2,AACCCATA,-0.0769
3,ACCCCTCG,-0.00649
4,GCTCCACC,0.0582
5,AGCTCAAC,-0.104
6,AGTGACTG,-0.246
7,ACCGTCGG,0.333
8,ATCGCCGG,0.445
9,AATGAAAT,-0.117
10,AACTCGGT,0.188
11,TCTCTGAA,-0.17
12,GCTCTACC,-0.126
13,AAAAAGAA,0.123
14,AGTATCCC,-0.104
15,AACATTGT,-0.0297
16,ACATGATG,-0.214
17,AATTACGG,0.217
18,ATAGAATC,0.0962
19,GTAAGAAA,-0.092
20,CATCCACC,0.00069
21,CCAGACCG,0.231
22,CATAACCA,-0.209
23,ATTAGTGA,-0.0161
24,GTGAGTCA,-0.321
25,AACGAGTC,-0.132

row,Sequence,PBM E-score
1,AGCATTGG,-0.151
2,AGCCTCGC,-0.14
3,AGCCCGGC,0.272
4,AAAGTACT,-0.0859
5,CCCACAGC,-0.286
6,ATAATTAG,0.157
7,ACCATGTG,-0.28
8,TCCCATCA,-0.217
9,AAAGCGTC,-0.156
10,GCGTGGAA,0.0279
11,GTACAAAC,-0.0539
12,GGCATGTA,-0.0091
13,TATGGTAA,0.0559
14,AACCCAGG,-0.164
15,AGTCGGTA,0.0714
16,ATTGCGAA,-0.0439
17,TGGAAGAA,-0.0848
18,ATCATGCC,-0.193
19,ACTCTACC,-0.00698
20,GGTGGTAA,0.223
21,CGCTGTCC,0.13
22,CAAAAGTG,-0.11
23,GAGACTCC,0.0169
24,AGGAGAGA,-0.255
25,GTCAAGTA,-0.298

row,Sequence,PBM E-score
1,AAAGAGTG,-0.157
2,CACTGCGC,-0.204
3,AGTAAAAG,0.00501
4,GTCCACTA,-0.102
5,CGAAAGTC,0.107
6,TATGGGCA,-0.108
7,CGCGTGTC,0.0935
8,GCGGCCCC,-0.0617
9,TGTTTAAA,-0.208
10,ATCTGGAC,0.033
11,AGGTCAGG,-0.188
12,GGATTTCA,0.283
13,ATTTTAGC,0.0771
14,ATTAGGTG,-0.0617
15,ACAGCTAA,-0.175
16,GAACAAGC,-0.132
17,ATCATTAG,-0.16
18,ATCATACA,-0.143
19,GAAAAGCC,0.258
20,ACCTGGTA,-0.275
21,CTTGGTCA,-0.0997
22,GCACGCTA,-0.101
23,CGCTCATC,-0.0346
24,GCGGAAGA,0.239
25,CAGATCGC,0.00561

row,Sequence,PBM E-score
1,AGCGGGAG,-0.0886
2,ATATCCCC,0.2
3,GGGTCACC,-0.218
4,AGGGCTAC,-0.228
5,AGCAGCTC,-0.13
6,ATGGGTCC,0.153
7,AGCAAACC,-0.0833
8,ACGGTCCC,0.0918
9,CGGTCACG,0.167
10,GCCGGCTA,0.229
11,ATCTAGTC,0.00704
12,AAAACTGT,-0.126
13,AAACTTAC,-0.0707
14,AGCTAAAC,-0.0747
15,CGTCCTCC,0.105
16,CGTTATGA,0.0887
17,AGAGTCGA,-0.148
18,CTGACGAA,-0.0966
19,ATGGGATC,-0.013
20,CCCCACCA,-0.135
21,GACGCTAA,-0.0683
22,GCACTGCA,-0.163
23,AGTTGATA,-0.017
24,AGTCACTC,-0.137
25,GACTCACA,-0.203

row,Sequence,PBM E-score
1,CTGAACAG,-0.123
2,ACGCGAAA,-0.00838
3,CTCGATCA,-0.0634
4,ACAGGGCA,-0.242
5,GTCTTATA,-0.121
6,GGTATTCA,0.0336
7,AGCACTCC,-0.00182
8,CACCTGTC,0.109
9,CAGATAAG,-0.108
10,CTGGAACA,-0.129
11,GCGCTGCA,-0.132
12,GTCCCGCA,0.124
13,CGCGCTGC,-0.0325
14,CCCGCTGC,0.139
15,GCAGGCGC,-0.0527
16,ATTCGAAC,-0.191
17,GCGCACGC,0.0699
18,TGGATGAA,-0.183
19,CGCCCCCG,0.237
